For 30 compounds, cytotoxicity call and growth inhibition call results are on record in the antibiotic and cytotoxicity screens of Wong et al. (2023).

Assay [1] relates to HSkMC (human skeletal muscle cells). Put plainly: cytotoxicity call (relative viability < 0.9). The conditions noted are these: 10 µM.
The subject of assay [2] is HepG2. Put plainly: cytotoxicity call (relative viability < 0.9). To be noted: 10 µM.
The test system of assay [3] is S. aureus RN4220. Put plainly: growth inhibition call (relative growth <= 0.2). To be noted: 50 µM.

The list shows a part of the results.

`C[C@@H]1CN([C@H](C)CO)C(=O)Cc2cc(NC(=O)c3ccncc3)ccc2O[C@H]1CN(C)S(=O)(=O)c1ccccc1`: the cytotoxicity call in assay [1] and in assay [2] was “inactive” in each case. In addition, the growth inhibition call in assay [3] was “inactive”.

With `Cc1noc(C)c1NC(=O)N(C)C[C@@H]1Oc2ccc(NC(=O)C3CC3)cc2CC(=O)N([C@@H](C)CO)C[C@@H]1C`, the cytotoxicity call in assay [1] and in assay [2] was “inactive” throughout. Besides, the growth inhibition call in assay [3] is “inactive”.

In the case of `C[C@@H]1CN([C@H](C)CO)S(=O)(=O)c2ccc(C#Cc3ccc(F)cc3)cc2O[C@H]1CN(C)S(C)(=O)=O`, the cytotoxicity call in assay [1] and in assay [2] was “inactive” in each case. Also, in assay [3], the growth inhibition call is “inactive”.

In the case of `O=C(NCc1ccc(F)cc1)[C@@H]1[C@@H](CO)[C@@H]2Cn3c(cccc3=O)[C@H]1N2C(=O)c1cnccn1`, the cytotoxicity call in assay [1] and in assay [2] was “inactive” in each case. Further, in assay [3], the growth inhibition call was “inactive”.

Regarding `O=C(C[C@H]1CC[C@@H]2[C@H](COC[C@H](O)CN2Cc2ccccc2F)O1)N[C@H]1CCN(Cc2ccccc2)C1`, the cytotoxicity call in assay [1] and in assay [2] was “inactive” each time. Also, the growth inhibition call in assay [3] was “inactive”.

With `COc1ccc(CN(C)C[C@@H]2OCCCC[C@H](C)Oc3ccc(NC(=O)Nc4c(C)noc4C)cc3C(=O)N([C@@H](C)CO)C[C@@H]2C)cc1`, the cytotoxicity call in assay [1] and in assay [2] was “inactive” each time. Besides, in assay [3], the growth inhibition call is “inactive”.

In the case of `CC(C)CC#Cc1ccc2c(c1)O[C@H](CN(C)Cc1cncnc1)[C@@H](C)CN([C@H](C)CO)S2(=O)=O`, the cytotoxicity call in assay [1] and in assay [2] was “inactive” each time. Besides, the growth inhibition call in assay [3] is “inactive”.

With `CNc1cccc(CN)c1`, the cytotoxicity call in assay [1] and in assay [2] was “inactive” throughout. Also, in assay [3], the growth inhibition call is “inactive”.

Turning to `COc1ccc(NC(=O)Nc2ccc3c(c2)CC(=O)N([C@H](C)CO)C[C@@H](C)[C@H](CN(C)Cc2ccc(C(F)(F)F)cc2)O3)cc1`, the cytotoxicity call in assay [1] and in assay [2] was “inactive” each time. In assay [3], the growth inhibition call was “inactive”.

Take `[O-][NH2+]N1CCCCC1`: the cytotoxicity call in assay [1] and in assay [2] was “inactive” throughout. The growth inhibition call in assay [3] was “inactive”.

On to `CO[C@H](CN(C)C(=O)c1ccccc1F)[C@H](C)CN([C@@H](C)CO)S(=O)(=O)c1ccc(Cl)cc1`, for which the cytotoxicity call in assay [1] and in assay [2] was “inactive” each time. Moreover, the growth inhibition call in assay [3] was “inactive”.

Take `O=C(C[C@@H]1C[C@H]2c3cc(NC(=O)NC4CCCC4)ccc3O[C@H]2[C@@H](CO)O1)NCCN1CCCCC1`: the cytotoxicity call in assay [1] and in assay [2] was “inactive” each time. In addition, the growth inhibition call in assay [3] is “inactive”.

In the case of `C[C@H](CO)N1C[C@H](C)[C@@H](CN(C)Cc2ccc(-c3ccccc3)cc2)Oc2ccc(NC(=O)NC3CCCCC3)cc2C1=O`, the cytotoxicity call in assay [1] and in assay [2] was “inactive” each time. Further, the growth inhibition call in assay [3] is “inactive”.

In the case of `Cc1ccc(S(=O)(=O)N(C)C[C@@H]2OCCCC[C@@H](C)Oc3ccc(NC(=O)CCC(F)(F)F)cc3C(=O)N([C@@H](C)CO)C[C@@H]2C)cc1`, the cytotoxicity call in assay [1] and in assay [2] was “inactive” in each case. Further, the growth inhibition call in assay [3] was “inactive”.

For the compound `Cc1ccc(OC(=O)N(C)C[C@H]2OCc3ccccc3-c3ccccc3C(=O)N([C@@H](C)CO)C[C@@H]2C)cc1`, the cytotoxicity call in assay [1] and in assay [2] was “inactive” in each case. Also, the growth inhibition call in assay [3] was “inactive”.

Consider `CCCc1ncc(C[n+]2ccccc2C)c(N)n1.[Cl-]`, for which the cytotoxicity call in assay [1] and in assay [2] was “inactive” each time. Also, the growth inhibition call in assay [3] was “inactive”.

`C[C@@H]1CN([C@@H](C)CO)C(=O)c2cc(NC(=O)CCC(F)(F)F)ccc2O[C@@H](C)CCCCO[C@@H]1CN(C)S(=O)(=O)c1ccccc1`: the cytotoxicity call in assay [1] and in assay [2] was “inactive” each time. For the same compound, the growth inhibition call in assay [3] was “inactive”.

On to `C[C@@H]1CN([C@H](C)CO)C(=O)c2cc(C3=CCCC3)cnc2O[C@@H]1CN(C)C(=O)c1ccc2c(c1)OCO2`, for which the cytotoxicity call in assay [1] and in assay [2] was “inactive” throughout. Besides, the growth inhibition call in assay [3] is “inactive”.

For the compound `COc1ccc2c(=O)cc(-c3ccccc3)oc2c1OC`, the cytotoxicity call in assay [1] and in assay [2] was “inactive” each time. Besides, the growth inhibition call in assay [3] is “inactive”.

`C[C@@H]1CN([C@H](C)CO)C(=O)c2cc(NS(=O)(=O)c3ccccc3)ccc2O[C@H]1CN(C)CC1CC1`: the cytotoxicity call in assay [1] and in assay [2] was “inactive” each time. Besides, the growth inhibition call in assay [3] was “inactive”.

Turning to `COc1cc(/C=C/C(=O)CC2=C[C@H](c3ccc(O)c(OC)c3)SC(NCc3ccco3)=N2)ccc1O`, the cytotoxicity call in assay [1] and in assay [2] was “inactive” each time. The growth inhibition call in assay [3] was “inactive”.

On to `COc1ccc(NC(=O)Nc2ccc3c(c2)[C@@H]2C[C@@H](CC(=O)NCc4ccncc4)O[C@@H](CO)[C@@H]2O3)cc1`, for which the cytotoxicity call in assay [1] and in assay [2] was “inactive” each time. In assay [3], the growth inhibition call is “inactive”.

`C[C@@H]1CN([C@@H](C)CO)C(=O)c2cccc(NC(=O)C3CCCCC3)c2O[C@@H]1CN(C)Cc1ccc(C(F)(F)F)cc1`: the cytotoxicity call in assay [1] and in assay [2] was “inactive” in each case. Also, the growth inhibition call in assay [3] is “inactive”.

Consider `C[C@@H]1CN([C@H](C)CO)C(=O)c2cc(NS(=O)(=O)c3ccccc3)ccc2O[C@@H](C)CCCCO[C@@H]1CN(C)Cc1ccc(C(=O)O)cc1`, for which the cytotoxicity call in assay [1] and in assay [2] was “inactive” in each case. In assay [3], the growth inhibition call was “inactive”.

Consider `Cc1ccc(S(=O)(=O)Nc2ccc3c(c2)C(=O)N([C@@H](C)CO)C[C@@H](C)[C@@H](CN(C)S(=O)(=O)c2ccc(Cl)cc2)OCCCC[C@H](C)O3)cc1`, for which the cytotoxicity call in assay [1] and in assay [2] was “inactive” each time. Besides, in assay [3], the growth inhibition call was “inactive”.

Consider `C[C@@H]1CCCCO[C@@H](CN(C)C(=O)Nc2ccccc2)[C@H](C)CN([C@@H](C)CO)C(=O)c2cc(NC(=O)c3ccccc3)ccc2O1`, for which the cytotoxicity call in assay [1] and in assay [2] was “inactive” in each case. Also, the growth inhibition call in assay [3] is “inactive”.

Take `O=C1CNC(=S)N1CCc1ccccc1`: the cytotoxicity call in assay [1] and in assay [2] was “inactive” in each case. In addition, in assay [3], the growth inhibition call is “inactive”.

Regarding `C[C@@H]1CCCCO[C@H](CN(C)C(=O)CCC(F)(F)F)[C@H](C)CN([C@@H](C)CO)C(=O)c2cc(NS(=O)(=O)c3ccc(Cl)cc3)ccc2O1`, the cytotoxicity call in assay [1] and in assay [2] was “inactive” each time. Moreover, the growth inhibition call in assay [3] was “inactive”.

In the case of `Cc1noc(C)c1S(=O)(=O)Nc1ccc2c(c1)CC(=O)N([C@H](C)CO)C[C@@H](C)[C@H](CN(C)C(=O)Nc1ccc3c(c1)OCO3)O2`, the cytotoxicity call in assay [1] and in assay [2] was “inactive” in each case. In addition, the growth inhibition call in assay [3] was “inactive”.

Regarding `COc1cc2c(cc1OC)-c1onc(-c3ccc(OCCO[Si](C(C)C)(C(C)C)C(C)C)cc3)c1CCCN(C[C@@H](C)OC(=O)NCCCCCC(=O)NO)CC2`, in assay [1], the cytotoxicity call is “inactive”. Also, the cytotoxicity call in assay [2] was “active”. For the same compound, the growth inhibition call in assay [3] was “inactive”.
